Source: the supplement of paper PMC7826260
The list shows a part of the results. The data describe in vitro nicking of single-stranded DNA by Rep domains for 1 h at 37 °C with 3 µM enzyme; only the middle of the 90-letter strands is printed. Uncut reads are compared with the no-enzyme pool on a log2 scale; strong cutting gives strongly negative numbers. There is no active / inactive call. Because reads are shares of a total, they shift together; uncut strands gain when others are lost, and binding without cutting may add a little.

Assays:
Assay in all cases: uncleaved DNA left, log2 of reads against the no-enzyme library (log2 ratio); higher = less cleavage (more negative = more Rep cleavage of the k-mer); sequences stand for … in CTCGTCCG…ACCGGAGA
[1] = system: T1, Rep nickase domain of Muscovy duck circovirus
T1 sequence (Rep 1-111, printed without the tag): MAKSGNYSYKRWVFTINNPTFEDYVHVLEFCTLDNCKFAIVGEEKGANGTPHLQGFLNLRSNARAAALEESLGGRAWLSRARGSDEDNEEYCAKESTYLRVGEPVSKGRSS
Method: (§1)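 A pool of 90-nt single-stranded DNAs with seven random bases just before the constant AC of the nick site (name = the seven bases) was cut by 3 µM recombinant His6-SUMO-tagged Rep nickase domain (300 nM DNA, 50 mM HEPES pH 8.0, 50 mM NaCl, 1 mM MnCl2, 1 h, 37 °C, three replicates). Uncut DNA was amplified and sequenced.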

[2] = system: T2, Rep nickase domain of banana bunchy top virus
T2 sequence (Rep 1-94, printed without the tag): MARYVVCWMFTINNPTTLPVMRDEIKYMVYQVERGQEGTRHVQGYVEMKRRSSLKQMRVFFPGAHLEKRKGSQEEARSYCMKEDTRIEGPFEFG
Method: as §1

[3] = system: T3, Rep nickase domain of cabbage leaf curl virus
T3 sequence (Rep 1-116, printed without the tag): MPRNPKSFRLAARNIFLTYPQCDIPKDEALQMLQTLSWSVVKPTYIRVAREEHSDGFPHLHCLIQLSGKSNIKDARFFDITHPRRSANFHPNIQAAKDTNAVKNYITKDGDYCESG
Method: as §1

[4] = system: T4, Rep nickase domain of chickpea chlorotic dwarf virus
T4 sequence (Rep 1-124, printed without the tag): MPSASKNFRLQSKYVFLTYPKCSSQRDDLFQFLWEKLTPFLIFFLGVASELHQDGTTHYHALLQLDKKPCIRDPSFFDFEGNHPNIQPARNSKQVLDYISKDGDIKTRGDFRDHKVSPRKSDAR
Method: as §1

[5] = system: T5, Rep nickase domain of faba bean necrotic yellows virus
T5 sequence (Rep 1-98, printed without the tag): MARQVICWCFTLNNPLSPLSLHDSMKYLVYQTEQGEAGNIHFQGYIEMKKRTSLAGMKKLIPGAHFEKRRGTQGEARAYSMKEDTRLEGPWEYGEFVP
Method: as §1

[6] = system: T6, Rep nickase domain of maize striate mosaic virus
T6 sequence (Rep 1-117, printed without the tag): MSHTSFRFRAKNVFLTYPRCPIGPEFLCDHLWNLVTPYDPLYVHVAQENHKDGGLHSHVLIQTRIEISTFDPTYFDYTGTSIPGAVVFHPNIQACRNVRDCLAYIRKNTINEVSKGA
Method: as §1

[7] = system: T7, Rep nickase domain of porcine circovirus 2
T7 sequence (Rep 2-116, printed without the tag): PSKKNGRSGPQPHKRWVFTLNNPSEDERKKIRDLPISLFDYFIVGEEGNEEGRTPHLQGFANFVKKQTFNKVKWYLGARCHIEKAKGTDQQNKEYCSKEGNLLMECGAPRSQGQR
Method: as §1

[8] = system: T8, Rep nickase domain of tomato yellow leaf curl virus
T8 sequence (Rep 1-136, printed without the tag): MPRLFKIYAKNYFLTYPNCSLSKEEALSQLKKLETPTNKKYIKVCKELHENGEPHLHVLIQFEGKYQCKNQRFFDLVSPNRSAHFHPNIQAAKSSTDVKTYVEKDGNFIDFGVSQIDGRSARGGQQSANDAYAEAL
Method: as §1

[9] = system: T9, Rep nickase domain of wheat dwarf virus
T9 sequence (Rep 1-137, printed without the tag): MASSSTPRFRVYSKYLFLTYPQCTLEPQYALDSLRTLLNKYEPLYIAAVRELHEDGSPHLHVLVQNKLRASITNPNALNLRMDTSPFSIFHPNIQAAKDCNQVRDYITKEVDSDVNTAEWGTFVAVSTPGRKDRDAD
Method: as §1

| Sequence | uncleaved DNA left (log2) [1] | uncleaved DNA left (log2) [2] | uncleaved DNA left (log2) [3] | uncleaved DNA left (log2) [4] | uncleaved DNA left (log2) [5] | uncleaved DNA left (log2) [6] | uncleaved DNA left (log2) [7] | uncleaved DNA left (log2) [8] | uncleaved DNA left (log2) [9] |
| --- | --- | --- | --- | --- | --- | --- | --- | --- | --- |
| GGACCTG | 0.0693 | 0.0555 | 0.3 | 1.09 | -0.0364 | 1.75 | 0.0857 | 0.0694 | 0.103 |
| TTCATTT | -0.107 | -0.169 | -0.198 | -2.08 | -0.0634 | -0.786 | -0.541 | -0.2 | -0.223 |
| CGTTCCC | -0.0853 | -0.0445 | 0.0827 | 0.279 | -0.185 | -0.00543 | -0.162 | 0.0263 | -0.00607 |
| CGCCCGG | 0.0181 | -0.0373 | 0.177 | 0.843 | -0.13 | 1.05 | 0.000102 | -0.132 | -0.0309 |
| ACTTTCT | -0.643 | -0.119 | -0.469 | -2.53 | 0.0518 | -0.852 | -2.05 | -0.0673 | -0.129 |
| GGTCGTG | 0.164 | 0.119 | 0.162 | 0.259 | 0.144 | 0.125 | 0.254 | 0.0996 | 0.0762 |
| CCTGATT | 0.174 | -0.222 | -0.152 | -1.57 | -0.163 | -0.393 | -2.13 | 0.0362 | -0.133 |
| CGGACTA | -0.0242 | 0.0132 | 0.681 | 1.71 | -0.107 | 2.08 | 0.0175 | -0.0756 | 0.119 |
| TCGATAA | -0.00606 | 0.0147 | -0.0797 | -0.168 | -0.00831 | -0.435 | 0.0219 | -0.0269 | 0.135 |
| CCAAGCC | 0.045 | -0.0583 | 0.105 | 0.636 | 0.0679 | 0.651 | 0.163 | -0.027 | -0.064 |
| CAAGTAC | -0.0754 | -0.0683 | -0.358 | -0.569 | 0.0288 | -0.891 | 0.024 | -0.0965 | -0.048 |
| CTTGAAT | -0.0541 | -0.0189 | -0.0133 | -0.42 | 0.0926 | -0.425 | -1.74 | 0.126 | 0.0647 |
| CAAATAA | -0.0255 | 0.111 | -0.201 | -0.594 | 0.0392 | -0.685 | 0.124 | -0.0383 | 0.0748 |
| AGTAGGG | 0.201 | 0.112 | -0.177 | -0.0239 | 0.207 | -0.608 | 0.257 | 0.121 | 0.0295 |
| ACAATGT | 0.0122 | -0.0833 | -0.255 | -0.689 | 0.0138 | -0.874 | 0.0597 | -0.0574 | -0.0607 |
| CCTACCT | -0.0696 | 0.0258 | -0.484 | -2.76 | -0.0808 | -0.554 | -0.978 | -0.032 | -0.119 |
| CTCGTAC | -0.0731 | 0.0513 | -0.00113 | -0.804 | 0.131 | -0.668 | 0.0853 | 0.0819 | -0.0453 |
| TGCAGAC | -0.0486 | -0.0784 | 0.101 | 0.444 | -0.0505 | 0.201 | 0.0775 | -0.103 | -0.09 |
| TAGCGAC | -0.0386 | -0.0562 | -0.00332 | 0.524 | -0.0372 | 0.851 | -0.00207 | 0.00923 | -0.00408 |
| TACCTCC | -0.0164 | -0.0253 | -0.0599 | -1.23 | 0.00633 | 0.543 | -0.461 | -0.0878 | -0.0958 |
| GCCTGTG | 0.123 | 0.0183 | -0.581 | -0.262 | 0.0741 | -0.72 | 0.226 | 0.12 | -0.0346 |
| CTACCTC | 0.0198 | 0.000999 | 0.0857 | -0.314 | 0.0443 | 0.604 | -0.177 | 0.142 | 0.149 |
| ATCATAG | 0.0266 | 0.075 | -0.662 | -0.163 | 0.0532 | -1.14 | 0.102 | 0.0919 | -0.0831 |
| CCGAAGA | 0.0065 | 0.0188 | 0.112 | 0.264 | 0.0504 | -0.239 | 0.147 | -0.144 | -0.038 |
| TGACAAC | -0.0495 | 0.0837 | 0.412 | 0.114 | -0.0463 | 1.24 | 0.181 | 0.177 | 0.235 |
| TTCCTCG | -0.0483 | 0.0219 | -0.891 | -0.361 | -0.0706 | -1.08 | 0.00079 | -0.0284 | -0.202 |
| AACATGC | -0.0603 | -0.0287 | -0.688 | -0.346 | -0.022 | -1.05 | 0.0796 | 0.0547 | -0.102 |
| GCCGGGT | 0.0998 | 0.102 | 0.536 | 0.727 | 0.118 | 1.57 | 0.202 | 0.0524 | 0.182 |
| GCTATTC | 0.128 | 0.0743 | 0.139 | 0.518 | 0.128 | -0.0533 | 0.185 | 0.081 | 0.0431 |
| CCACCAG | -0.0489 | -0.118 | -0.892 | -0.759 | -0.164 | -1.1 | -0.0621 | -0.0547 | -0.165 |
